# Results reported in the supplement of paper PMC8728848.
# The other results are listed elsewhere or left out.
# B1: LecRKVI.2 (protein)
# chain: RTTTNFAFRGFNGNQSKIRIEGAAMIKPDGLLRLTDRKSNVTGTAFYHKPVRLLNRNSTNVTIRSFSTSFVFVIIPSSSSNKGFGFTFTLSPTPYRLNAGSAQYLGVFNKENNGDPRNHVFAVEFDTVQGSRDDNTDRIGNDIGLNYNSRTSDLQEPVVYYNNDDHNKKEDFQLESGNPIQALLEYDGATQMLNVTVYPARLGFKPTKPLISQHVPKLLEIVQEEMYVGFTASTGKGQSSAHYVMGWSFSSGGERPIADVLILSELPPPPPNKAKKEGLNS
# Tests used:
# Test in all cases: glycan array binding signal (z-score within array); higher = stronger binding
# Settings in all cases: glycan notation: IUPAC condensed, linker removed
# [1] = biological target: Neu5Ac(a2-3)Gal(b1-4)GlcNAc(b1-6)GalNAc
# Outline: (§1)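 The binding signal is a Z-score computed within each array. Data were drawn from 3228 arrays in the Consortium for Functional Glycomics database, restricted to those with a known protein sequence. Scores were averaged over arrays of the same protein sequence at different concentrations or buffers, and over linkers, and negative values can be taken as non-binding.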
# [2] = biological target: Neu5Ac(a2-3)Gal(b1-4)GlcNAc(b1-6)[Gal(b1-3)]GalNAc
# Outline: as §1
# [3] = biological target: Neu5Ac(a2-3)Gal(b1-4)GlcNAc(b1-6)[Neu5Ac(a2-3)Gal(b1-3)]GalNAc
# Outline: as §1
# [4] = biological target: Neu5Ac(a2-3)Gal(b1-4)GlcNAc6S
# Outline: as §1
# [5] = biological target: Neu5Ac(a2-3)Gal(b1-4)[Fuc(a1-3)]GlcNAc
# Outline: as §1
# [6] = biological target: Neu5Ac(a2-3)Gal(b1-4)[Fuc(a1-3)]GlcNAc(b1-2)Man
# Outline: as §1
# [7] = biological target: Neu5Ac(a2-3)Gal(b1-4)[Fuc(a1-3)]GlcNAc(b1-3)Gal
# Outline: as §1
# [8] = biological target: Neu5Ac(a2-3)Gal(b1-4)[Fuc(a1-3)]GlcNAc(b1-3)Gal(b1-4)GlcNAc
# Outline: as §1
# [9] = biological target: Neu5Ac(a2-3)Gal(b1-4)[Fuc(a1-3)]GlcNAc(b1-3)Gal(b1-4)[Fuc(a1-3)]GlcNAc(b1-3)Gal(b1-4)[Fuc(a1-3)]GlcNAc
# Outline: as §1
# [10] = biological target: Neu5Ac(a2-3)Gal(b1-4)[Fuc(a1-3)]GlcNAc(b1-3)GalNAc
# Outline: as §1
# [11] = biological target: Neu5Ac(a2-3)Gal(b1-4)[Fuc(a1-3)]GlcNAc(b1-6)[Gal(b1-3)]GalNAc
# Outline: as §1
# [12] = biological target: Neu5Ac(a2-3)Gal(b1-4)[Fuc(a1-3)]GlcNAc(b1-6)[Neu5Ac(a2-3)Gal(b1-3)]GalNAc
# Outline: as §1
# [13] = biological target: Neu5Ac(a2-3)Gal(b1-4)[Fuc(a1-3)]GlcNAc6S
# Outline: as §1
# [14] = biological target: Neu5Ac(a2-3)Gal6S(b1-4)GlcNAc
# Outline: as §1
# [15] = biological target: Neu5Ac(a2-3)Gal6S(b1-4)[Fuc(a1-3)]GlcNAc
# Outline: as §1
# Neu5Ac(a2-3)GalNAc = biological target: Neu5Ac(a2-3)GalNAc
# Outline: as §1
# [16] = biological target: Neu5Ac(a2-3)GalNAc(b1-4)GlcNAc
# Outline: as §1
# [17] = biological target: Neu5Ac(a2-3)[GalNAc(b1-4)]Gal(b1-4)Glc
# Outline: as §1
# [18] = biological target: Neu5Ac(a2-3)[GalNAc(b1-4)]Gal(b1-4)GlcNAc
# Outline: as §1
# [19] = biological target: Neu5Ac(a2-3)[GalNAc(b1-4)]Gal(b1-4)GlcNAc(b1-3)GalNAc
# Outline: as §1
# [20] = biological target: Neu5Ac(a2-3)[Neu5Ac(a2-6)]GalNAc
# Outline: as §1
# Neu5Ac(a2-6)Gal = biological target: Neu5Ac(a2-6)Gal
# Outline: as §1
# [21] = biological target: Neu5Ac(a2-6)Gal(b1-3)GlcNAc(b1-3)[Gal(b1-4)GlcNAc(b1-6)]Gal(b1-4)Glc
# Outline: as §1
# Neu5Ac(a2-6)Gal(b1-4)Glc = biological target: Neu5Ac(a2-6)Gal(b1-4)Glc
# Outline: as §1
# [22] = biological target: Neu5Ac(a2-6)Gal(b1-4)GlcNAc
# Outline: as §1
# [23] = biological target: Neu5Ac(a2-6)Gal(b1-4)GlcNAc(b1-2)Man
# Outline: as §1
# [24] = biological target: Neu5Ac(a2-6)Gal(b1-4)GlcNAc(b1-2)Man(a1-3)Man(b1-4)GlcNAc(b1-4)GlcNAc
# Outline: as §1
# [25] = biological target: Neu5Ac(a2-6)Gal(b1-4)GlcNAc(b1-2)Man(a1-3)[Gal(b1-4)GlcNAc(b1-2)Man(a1-6)]Man(b1-4)GlcNAc(b1-4)GlcNAc
# Outline: as §1
# [26] = biological target: Neu5Ac(a2-6)Gal(b1-4)GlcNAc(b1-2)Man(a1-3)[GlcNAc(b1-2)Man(a1-6)]Man(b1-4)GlcNAc(b1-4)GlcNAc
# Outline: as §1
# [27] = biological target: Neu5Ac(a2-6)Gal(b1-4)GlcNAc(b1-2)Man(a1-3)[GlcNAc(b1-4)][Neu5Ac(a2-6)Gal(b1-4)GlcNAc(b1-2)Man(a1-6)]Man(b1-4)GlcNAc(b1-4)GlcNAc
# Outline: as §1
# [28] = biological target: Neu5Ac(a2-6)Gal(b1-4)GlcNAc(b1-2)Man(a1-3)[Man(a1-6)]Man(b1-4)GlcNAc(b1-4)GlcNAc
# Outline: as §1
binder,measurement,setting,value
B1,glycan array binding signal (z-score),[1],-0.273
same,glycan array binding signal (z-score),[2],-0.215
same,glycan array binding signal (z-score),[3],-0.41
same,glycan array binding signal (z-score),[4],-0.385
same,glycan array binding signal (z-score),[5],-0.408
same,glycan array binding signal (z-score),[6],-0.35
same,glycan array binding signal (z-score),[7],-0.392
same,glycan array binding signal (z-score),[8],-0.238
same,glycan array binding signal (z-score),[9],-0.44
same,glycan array binding signal (z-score),[10],-0.276
same,glycan array binding signal (z-score),[11],3.09
same,glycan array binding signal (z-score),[12],0.077
same,glycan array binding signal (z-score),[13],-0.283
same,glycan array binding signal (z-score),[14],-0.401
same,glycan array binding signal (z-score),[15],-0.46
same,glycan array binding signal (z-score),Neu5Ac(a2-3)GalNAc,-0.25
same,glycan array binding signal (z-score),[16],-0.33
same,glycan array binding signal (z-score),[17],0.016
same,glycan array binding signal (z-score),[18],-0.286
same,glycan array binding signal (z-score),[19],-0.005
same,glycan array binding signal (z-score),[20],-0.351
same,glycan array binding signal (z-score),Neu5Ac(a2-6)Gal,-0.33
same,glycan array binding signal (z-score),[21],-0.364
same,glycan array binding signal (z-score),Neu5Ac(a2-6)Gal(b1-4)Glc,-0.337
same,glycan array binding signal (z-score),[22],-0.368
same,glycan array binding signal (z-score),[23],-0.467
same,glycan array binding signal (z-score),[24],-0.221
same,glycan array binding signal (z-score),[25],0.37
same,glycan array binding signal (z-score),[26],-0.274
same,glycan array binding signal (z-score),[27],-0.376
same,glycan array binding signal (z-score),[28],-0.342
